# In article PMC7113770 (Antiviral Research, 2018):
# System: patient-derived HEV of gts 1–4
# Test: Infection of hepatocyte-like cells with primary HEV isolates, HEV RNA copies
# Settings: 10 nM silvestrol for 24 h, 24 h post-infection
structure (smiles),measurement,value
"COC(=O)[C@H]1[C@@H](O)[C@@]2(O)c3c(OC)cc(O[C@@H]4O[C@@H]([C@H](O)CO)CO[C@H]4OC)cc3O[C@@]2(c2ccc(OC)cc2)[C@@H]1c1ccccc1 [Silvestrol, silvestrol]",reduction of HEV RNA copy numbers in HLCs,confirmed in all major human pathogenic genotypes
